Measurements taken from the supplement of paper PMC11417369.
Some of the results follow.

Test system: PfAP2-HC AP2 domain (GST-tagged)
Test: gcPBM binding intensity (ln(normalized median fluorescence intensity)); higher = stronger DNA binding
How it was run: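 Probes on an Agilent 4 × 180k array were primer-extended, double-stranded and 36 bp long, taken from intergenic genomic regions, with negative controls added. GST-tagged P. falciparum DNA-binding domains from E. coli, about 25 μg on average, were applied to the array for 1 h in 1× PBS containing 1% milk, 0.2 mg/ml BSA, 0.5% salmon testes DNA and 0.03% Triton X-100. Binding intensity, obtained after Alexa488 anti-GST antibody detection and a 488 nm scan, is the highest Masliner-normalised natural-log median intensity across replicate spots of either probe orientation.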

Sequence | gcPBM binding intensity (ln)
TGACATAAAAAATATACACACTATAATATATATACT [CACACA_site4898] | 9.81
TGTATCCATATTTGTTCACACACACCCATATTTATA [CACACA_site9190] | 10.4
ATAATATGTATGGTCACACAGACAAGGAAAGAATAA [CACACA_site5164] | 9.99
GTATATTTTAATATGACACACATATTATATATATAT [CACACA_site2483] | 9.89
AAAAAAAAAAAAAAATGTACATATATATATATATAT [XGTACX_site876] | 9.64
ATAATAATATTGTGTACACAATAATTTGTCAAATCA [CACACA_site6019] | 9.69
ACATATACAAGACACACACACAACGTTTTAATAAAT [CACACA_site7017] | 11.2
AAGGAATATGTATATACACACAGGTACATATATATA [CACACA_site441] | 9.93
AAAAAATAATAATAATGTACAAATAAAATAAAAACA [XGTACX_site6568] | 9.92
TCGTGTGAAAATATTACACACATTTACTATAGTATC [CACACA_site7590] | 9.91
ATAAAAATTGAAACATGTACACATATTCATTTTATA [XGTACX_site7968] | 9.58
ATATATTTTTACCATACACACATATAATAAATATAT [CACACA_site3722] | 9.86
TCATTAATATTTCATAGTACAATTTTGTCTAATTGT [XGTACX_site6720] | 9.55
TTATATTATACATACACACCCATATAACATGTTTTT [CACACA_site6539] | 9.89
AATGGAAAAAAAAAAATAAATACAAATAAATACAAA [GTGCAC_negctrl_site407] | 9.63
TATTTTTTTCTTACTACACACATATATATGCTTTCC [CACACA_site4058] | 10
CCCCCCGTGTTATATACACACATAATCAAATAAAAT [CACACA_site4111] | 10.5
AGAAATAAGAAATATACACACATATATATATATATA [CACACA_site2808] | 9.69
TCTTATTAAAATATTTATATAGGTAATCACAATATT [GTGCAC_negctrl_site568] | 9.76

Sequence | gcPBM binding intensity (ln)
TATAAAATAAGACATGCATGTTATACATATATATAT [TGCATGCA_site314] | 9.89
TTTTGTTATGAGAGGGTGCTAATATTTGGATATAAA | 9.86
AAAAAAAGAAAAATTGCACACACTTATAAAAATATA [CACACA_site4014] | 9.88
AAAAAAAAAAAAAGTAGTACATAATATGTTCCTCCT [XGTACX_site8356] | 9.47
ATTATAAATTAAAATACACACATATATACCTAATAT [CACACA_site5541] | 9.84
ATATATAATTACACAAATAAAAAAATAAAATGAAAT [CACACA_negctrl_site1513] | 9.79
AGAATAAAAATACAAGCACACATGTATGAAATATAT [CACACA_site3213] | 10.2
TGAACAATGTATAATTGTACGCAACGAAAATAAAAA [XGTACX_site1559] | 9.74
ATCATGTTATATATGTGTACATATATATGATATAAT [XGTACX_site991] | 9.69
AAAAAAAAAATACAACAAAGTTAAATAAATAAATAA [GTGCAC_negctrl_site402] | 9.63
AAATAAAAGGTTGAGAGTACATTTTTGTGTATGTAT [XGTACX_site5547] | 9.72
ATATTTCATTAATGAACACACAAAGAGGTATATAAA [CACACA_site1519] | 9.9
ATATTTAAAAATATAGTGCAATTATTCTAATGTGTT | 9.59
AGCTCTCAAAATTATTCACACGTGTCCTGTTATATA [CACACA_site5415] | 10.1
TTTTTTCTTTTATGTGAAATGTAATATTGTTATATA [GTGCAC_negctrl_site715] | 9.51
AGGTGATTGATATATACACACATACCTATATTTATA [CACACA_site7348] | 9.79
TGTTTATTTAATAATATTTTTTTTTTTATTATATTA [XGTACX_negctrl_site56] | 9.48
TTATTAAAATATTCTAGTACATATAAAAGGAGAACA [XGTACX_site4374] | 9.63
GTGCTTATTTATACATGTACAAATGATAAGTTTGTA [XGTACX_site169] | 9.66

Sequence | gcPBM binding intensity (ln)
GAAATAAATATATATGCATGTACTTTAATATTATTA [TGCATGCA_site904] | 9.66
TAAATATATTCATAAAGTACAAAGCAAAATTGTCTA [XGTACX_site7274] | 9.63
ATATATTATTTTAAATGTACTCATAATAGAAATGTC [XGTACX_site40] | 9.54
ATATAAAGAAAAGGAACACACAAATATATATATATA [CACACA_site463] | 9.8
CACACAGGTAAAAAGGTGCAGTTGAAATATTCCTCA [GTGCAC_site9730] | 9.69
TGATATTTTATTATTAAAATATATACATATATATAT [CACACA_negctrl_site1456] | 9.76
ATAAAAATAAAATGGACACACATATATACCTATTTG [CACACA_site5761] | 10.1
AAGAAAAAAAAAAAAAAAGATACTTTTTTAAAACTA [TGCATGCA_negctrl_site13] | 9.32
TTATATTTTTACAAGAGTACATATATATATATATAT [XGTACX_site5383] | 9.55
GTGCAATATTTATTTTGTACATATTTATCAATAAAC [XGTACX_site8297] | 9.52
ACATCGATTTATATTCTGCACTGAAGAAACTACAAC [GTGCAC_site9967] | 9.59
ATTAAATATATTAAATGTACATAATATATATATATA [XGTACX_site5032] | 9.76
TTTATTTGATGAACATGTACAAAAAAACAAAGAACA [XGTACX_site823] | 9.64
TCAAACCAGTTGATGTGTACACATATAGTAATAATT [XGTACX_site6014] | 9.91
TATTTATACATAGGTGGTACTACTTTAAACAAAAAA [XGTACX_site5062] | 9.51
TATATGGAGAGATATGCACACTGTATGAATGCCCCC [CACACA_site8853] | 10.1
AAATAAATAATATTCACACATAAAAAAAATGGAGTT [CACACA_site4525] | 9.77
TTGCACAGATTAATCAAAAATTTTAAACCAAATATA [XGTACX_negctrl_site38] | 9.45
TATTTACACAAAATAAAATATATTATATATATATAT [TGCATGCA_negctrl_site381] | 9.47
